# Assay results from the supplement of paper PMC3334620.
# In all, about 33,000 sequences were measured (“E-score (-0.5 to 0.5)”: median about -0.04, highest 2% from about 0.36 on). Some of the results follow.
# Molecular target: T1, Hmlalpha2 (UniProt P0CY09)
# T1 sequence: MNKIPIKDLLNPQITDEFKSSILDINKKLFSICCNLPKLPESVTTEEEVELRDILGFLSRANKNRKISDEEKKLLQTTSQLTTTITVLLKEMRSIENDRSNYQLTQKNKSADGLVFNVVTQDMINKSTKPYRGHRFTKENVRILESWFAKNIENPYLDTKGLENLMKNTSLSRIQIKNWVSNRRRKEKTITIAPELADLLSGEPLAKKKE
# Assay: PBM E-score (8-mer binding enrichment) (E-score (-0.5 to 0.5)); higher = stronger / more preferred TF binding; most listed sequences are background and not binding sites
# Settings: protein concentration: 200 nM; construct: GST-full length
# Method: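 Universal 'all 10-mer' protein binding microarrays (Agilent AMADID 015681) probed with GST-tagged S. cerevisiae TFs (full-length or DBD) made by in vitro transcription/translation (PURExpress), about 100-200 nM. Bound TF was detected with fluorescent anti-GST. Each ungapped 8-mer (which stands for itself and its reverse complement) is scored by the PBM enrichment score (E-score), a modified Wilcoxon-Mann-Whitney statistic from -0.5 to +0.5, computed with the Universal PBM Analysis Suite. Scale: above 0.35 generally sequence-specific binding.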
row,Sequence,PBM E-score
1,ACATTCGA,0.123
2,ACCCCCGC,-0.277
3,AGCAGGAT,-0.14
4,AGTCAACC,-0.221
5,GATGCTTA,-0.132
6,GGCATTAA,0.0928
7,GGCTGCAC,-0.118
8,AAGTATCT,0.0958
9,GCGCAGAA,0.0478
10,ACTGGTCC,-0.218
11,CGTAGGAG,-0.0815
12,ATGTTTAC,0.433
13,ATAACTAA,0.227
14,CACGTCAG,-0.0908
15,AAACCTTG,0.0591
16,GGAGGTGA,-0.0585
17,TCCATCAA,0.0233
18,GTGGGCTA,-0.235
19,CATGTCTA,0.271
20,AGAAGTCG,-0.131
21,ACATGCAT,0.337
22,GTGGATGA,0.0559
23,CCCACCGG,-0.341
24,AATAAATG,0.115
25,AAACAATG,0.161

row,Sequence,PBM E-score
1,ATCCGGAG,0.0704
2,CGCCTGTA,0.0272
3,AATCTTAA,0.0438
4,CGGCGAAA,-0.0257
5,AGACTTAA,0.0443
6,CGGGCTGA,-0.252
7,AGAAATAA,0.166
8,GCCATAGA,-0.329
9,AATGGTGA,-0.00088
10,TACGCTGA,0.122
11,AGCACGGC,0.102
12,ACAGGAGT,0.134
13,ATCCAATC,-0.0868
14,GAGTCCCC,-0.362
15,ACTTAGAA,0.0319
16,ACTTTTAC,0.334
17,CCCATAAA,-0.0807
18,CAGCCTGA,-0.177
19,GTCAGAGA,-0.108
20,TTATGGAA,-0.196
21,ATTGACGA,0.116
22,ATGCAAAC,-0.0222
23,ATGACTCA,-0.0347
24,AAGTGAGG,-0.187
25,CTTCGAAA,0.119

row,Sequence,PBM E-score
1,CGGTAACC,0.0427
2,AGTGGCAC,-0.237
3,ACCGCTCC,-0.193
4,ACAGTCAT,0.0263
5,AACAGTCA,-0.0853
6,ATGAAGAG,-0.0482
7,GTTCAAAC,0.092
8,TGGTAGAA,0.0266
9,TAAAAGAA,0.166
10,CAGGCGGG,-0.323
11,CATACTGC,-0.134
12,CCCTACCG,-0.206
13,CAAGAATA,-0.00782
14,ATCTACGC,0.368
15,ATGGAAGG,-0.196
16,CCTTGAGC,-0.151
17,GATCCGTA,-0.322
18,CTTCGATC,-0.122
19,TGCACACA,0.14
20,CATGGCCG,0.099
21,CACAACGG,0.107
22,GGAGAGAA,-0.1
23,AAACAGGC,-0.186
24,AAGAACAA,0.309
25,ATGGTACC,0.0108

row,Sequence,PBM E-score
1,GAACCTGC,-0.102
2,AAGCCGTC,-0.134
3,ACTGTCAT,-0.0408
4,AGATTTAC,0.289
5,CACGCCAG,-0.0109
6,AGACTAAA,-0.0357
7,CCGTGCCG,-0.175
8,CTTTACCA,0.0599
9,CCACGAAG,-0.0774
10,ATCCGAGC,-0.175
11,CGTACAAA,0.225
12,AGAATGTG,-0.125
13,CCTGCCCG,-0.141
14,GTGAGATA,-0.116
15,GGTGTTTA,0.112
16,GTTCGGGA,-0.0459
17,CCGAGAGG,-0.259
18,CAGCCTCG,0.00779
19,GAGCAAGA,-0.159
20,ACTATCTA,0.169
21,ATTCCGTG,0.119
22,CAGAAGAG,-0.19
23,CCGTCGCG,-0.066
24,GAGAAGAC,-0.077
25,AGGAAGAT,-0.192

row,Sequence,PBM E-score
1,AAATTTGT,0.148
2,GCTGGCAA,-0.147
3,TCAGGCGA,-0.202
4,ATTAGTGC,0.0211
5,GAACAATA,0.224
6,AATAGGGA,-0.195
7,CACAGCGG,0.0576
8,AAATCTAG,-0.0263
9,CAACGATA,0.126
10,ATGCCAAC,0.0893
11,AGGAGTCG,-0.171
12,GTGTTAGA,0.305
13,GCGACTGA,-0.167
14,AGATCCGC,-0.21
15,CAGCACAG,0.0911
16,ATTATAAC,0.135
17,CTGGGCCA,-0.374
18,CTCACGCA,0.0712
19,CTGCGCAG,-0.105
20,ATCTTCTC,-0.215
21,CCTGGATC,-0.221
22,CCATGCCC,-0.271
23,ACCCGCAA,-0.192
24,ACTTGTTA,0.259
25,CGAACCTA,-0.0795

row,Sequence,PBM E-score
1,ATTTACTG,0.051
2,ATGGCTTG,0.0344
3,TAACGCTA,0.133
4,AATTGGGA,-0.072
5,AACCTGTG,0.145
6,AACAATGT,0.279
7,CCGCGCAA,-0.0442
8,CGATTCGA,0.0306
9,AATGCCCC,-0.262
10,ACACTAGT,0.0139
11,AGGTTGTC,0.0486
12,GTTTGCAA,0.281
13,CGACGCTC,-0.155
14,CTGCACAC,0.0406
15,ACTCAAGA,-0.0922
16,AAGGCCTC,-0.205
17,ACGCTGTC,0.107
18,ATATTTTC,0.0479
19,CCTAGTCG,-0.178
20,CTACGAGC,-0.184
21,CTGGGCCC,-0.329
22,AGTAAATA,0.22
23,AACGACCG,-0.104
24,AGATAGCG,0.0912
25,ATCTCTGC,-0.272

row,Sequence,PBM E-score
1,GTGCAGTA,0.0382
2,GCCAACAC,0.198
3,GAGCTGGA,-0.284
4,CAATCTTC,0.0595
5,ATTCCCCC,-0.294
6,ATCTCGTG,-0.033
7,TGGTTTAA,0.224
8,CACGCCCC,0.0158
9,ATACGCAG,0.233
10,ATCACTCC,-0.129
11,CGACTGAC,-0.137
12,GATAGCTA,-0.281
13,GTACCAGA,0.033
14,CAAATATC,0.169
15,CCCGTACA,0.0325
16,ACGCTTCT,-0.0872
17,GGTGCAGA,-0.202
18,CACTTTGC,0.133
19,CGGGAGCA,-0.331
20,ATGAACCC,-0.0656
21,TATGTCCA,-0.0193
22,GCAGCAAC,0.0954
